50 sequences from the supplement of paper PMC12645437, “Orthogonal IMiD-Degron Pairs Induce Selective Protein Degradation in Cells” (ACS Chemical Biology, 2025) can be followed below.

The list shows a part of the results.

To fix the notation:
B1: Q9UKT9 (peptide)
chain: LKCPICGFDCTQKGNLLRHIKL
B2: Q9UKT9 (peptide)
chain: FCCDQCGATFTQKGNLLRHIKL
B3: Q9UKT9 (peptide)
chain: LMCPICGFRCTQKGNLLRHIKL
B4: Q9UKT9 (peptide)
chain: FLCNVCGAKFTQKGNLLRHIKL
B5: Q9UKT9 (peptide)
chain: FQCNVCGAKFTQKGNLLRHIKL
B6: Q9UKT9 (peptide)
chain: FVCNQCGAEFTQKGNLLRHIKL
B7: Q9UKT9 (peptide)
chain: FTCEICGHGFTQKGNLLRHIKL
B8: Q9UKT9 (peptide)
chain: FTCEQCGASFTQKGNLLRHIKL
B9: Q9UKT9 (peptide)
chain: FRCDQCGAEFTQKGNLLRHIKL
B10: Q9UKT9 (peptide)
chain: FACPICGRCFTQKGNLLRHIKL
B11: Q9UKT9 (peptide)
chain: FFCDVCGAGFTQKGNLLRHIKL
B12: Q9UKT9 (peptide)
chain: FMCPICGAAFTQKGNLLRHIKL
B13: Q9UKT9 (peptide)
chain: LMCEICGFMCTQKGNLLRHIKL
B14: Q9UKT9 (peptide)
chain: FWCDQCGAKFTQKGNLLRHIKL
B15: Q9UKT9 (peptide)
chain: FTCPQCGAEFTQKGNLLRHIKL
B16: Q9UKT9 (peptide)
chain: FLCEICGAYFTQKGNLLRHIKL
B17: Q9UKT9 (peptide)
chain: FLCPQCGAEFTQKGNLLRHIKL
B18: Q9UKT9 (peptide)
chain: FFCDVCGATFTQKGNLLRHIKL
B19: Q9UKT9 (peptide)
chain: FYCEICGRTFTQKGNLLRHIKL
B20: Q9UKT9 (peptide)
chain: FYCNQCGRCFTQKGNLLRHIKL
B21: Q9UKT9 (peptide)
chain: FICNQCGASFTQKGNLLRHIKL
B22: Q9UKT9 (peptide)
chain: FCCNICGAVFTQKGNLLRHIKL
B23: Q9UKT9 (peptide)
chain: FQCPICGRSFTQKGNLLRHIKL
B24: Q9UKT9 (peptide)
chain: FECDQCGAGFTQKGNLLRHIKL
B25: Q9UKT9 (peptide)
chain: FCCEICGAGFTQKGNLLRHIKL
B26: Q9UKT9 (peptide)
chain: FKCEICGHTFTQKGNLLRHIKL
B27: Q9UKT9 (peptide)
chain: FICPVCGAAFTQKGNLLRHIKL
B28: Q9UKT9 (peptide)
chain: FDCNQCGAFFTQKGNLLRHIKL
B29: Q9UKT9 (peptide)
chain: FYCPQCGALFTQKGNLLRHIKL
B30: Q9UKT9 (peptide)
chain: FSCPICGHVFTQKGNLLRHIKL
B31: Q9UKT9 (peptide)
chain: FMCNQCGHEFTQKGNLLRHIKL
B32: Q9UKT9 (peptide)
chain: FKCSVCGHRFTQKGNLLRHIKL
B33: Q9UKT9 (peptide)
chain: FGCNVCGAGFTQKGNLLRHIKL
B34: Q9UKT9 (peptide)
chain: FLCNICGAAFTQKGNLLRHIKL
B35: Q9UKT9 (peptide)
chain: FYCEICGHEFTQKGNLLRHIKL
B36: Q9UKT9 (peptide)
chain: FYCPICGRHFTQKGNLLRHIKL
B37: Q9UKT9 (peptide)
chain: FYCEQCGAAFTQKGNLLRHIKL
B38: Q9UKT9 (peptide)
chain: FNCNQCGHYFTQKGNLLRHIKL
B39: Q9UKT9 (peptide)
chain: FACPICGRYFTQKGNLLRHIKL
B40: Q9UKT9 (peptide)
chain: FNCEICGHPFTQKGNLLRHIKL
B41: Q9UKT9 (peptide)
chain: FECPQCGAHFTQKGNLLRHIKL
B42: Q9UKT9 (peptide)
chain: FTCDICGAIFTQKGNLLRHIKL
B43: Q9UKT9 (peptide)
chain: FTCPICGHCFTQKGNLLRHIKL
B44: Q9UKT9 (peptide)
chain: FSCEICGRMFTQKGNLLRHIKL
B45: Q9UKT9 (peptide)
chain: FSCEICGRAFTQKGNLLRHIKL
B46: Q9UKT9 (peptide)
chain: FYCDVCGASFTQKGNLLRHIKL
B47: Q9UKT9 (peptide)
chain: LKCEICGFNCTQKGNLLRHIKL
B48: Q9UKT9 (peptide)
chain: FVCPVCGAMFTQKGNLLRHIKL
B49: Q9UKT9 (peptide)
chain: FDCEVCGAKFTQKGNLLRHIKL
B50: Q9UKT9 (peptide)
chain: FMCEICGHRFTQKGNLLRHIKL
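Further: jurkat cells carrying a lentiviral library of mutant zinc finger degrons fused to EGFP plus mCherry, mCherry+ cells FACS sorted, degron abundance counted by next-generation sequencing.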

This test addresses no compound (DMSO). Briefly: log2 fold change of degron read counts, EGFP-low vs EGFP+ sorted cells; higher = lower degron-EGFP level without compound (poor expression or instability). The conditions noted are these: compound: DMSO control; 18 h.
In the case of B1, the “log2 fold change of degron read counts” value stood at 0.698.

As for B2, the “log2 fold change of degron read counts” value is -1.67.

On to B3, for which the “log2 fold change of degron read counts” value worked out at 0.69.

As for B4, the “log2 fold change of degron read counts” value is -0.566.

For the sequence B5, the “log2 fold change of degron read counts” value is -1.93.

On to B6, for which the “log2 fold change of degron read counts” value was -2.69.

On to B7, for which the “log2 fold change of degron read counts” value is -2.44.

As to B8, the “log2 fold change of degron read counts” value is -1.83.

Turning to B9, the “log2 fold change of degron read counts” value is -1.7.

With B10, the “log2 fold change of degron read counts” value is 0.184.

B11: the “log2 fold change of degron read counts” value is -0.241.

B12: the “log2 fold change of degron read counts” value is -0.115.

On to B13, for which the “log2 fold change of degron read counts” value is -0.104.

For the sequence B14, the “log2 fold change of degron read counts” value was -1.17.

Turning to B15, the “log2 fold change of degron read counts” value was -2.27.

As for B16, the “log2 fold change of degron read counts” value was -0.21.

Consider B17, for which the “log2 fold change of degron read counts” value was -2.31.

Consider B18, for which the “log2 fold change of degron read counts” value is -2.46.

On to B19, for which the “log2 fold change of degron read counts” value was -1.35.

Take B20: the “log2 fold change of degron read counts” value was found to be 0.223.

For B21, the “log2 fold change of degron read counts” value is -1.29.

Turning to B22, the “log2 fold change of degron read counts” value is 0.432.

With B23, the “log2 fold change of degron read counts” value stood at 0.0142.

As to B24, the “log2 fold change of degron read counts” value is -0.519.

For B25, the “log2 fold change of degron read counts” value was -1.28.

Turning to B26, the “log2 fold change of degron read counts” value is -2.71.

Turning to B27, the “log2 fold change of degron read counts” value is -0.0924.

B28: the “log2 fold change of degron read counts” value stood at 1.07.

Regarding B29, the “log2 fold change of degron read counts” value came to 0.78.

As to B30, the “log2 fold change of degron read counts” value was -0.0614.

For the sequence B31, the “log2 fold change of degron read counts” value is -0.965.

As to B32, the “log2 fold change of degron read counts” value was -0.198.

As to B33, the “log2 fold change of degron read counts” value worked out at 0.198.

Consider B34, for which the “log2 fold change of degron read counts” value is -0.587.

As for B35, the “log2 fold change of degron read counts” value is -1.15.

Consider B36, for which the “log2 fold change of degron read counts” value is -3.34.

As to B37, the “log2 fold change of degron read counts” value was -1.23.

For the sequence B38, the “log2 fold change of degron read counts” value was found to be 1.17.

With B39, the “log2 fold change of degron read counts” value is 0.415.

On to B40, for which the “log2 fold change of degron read counts” value is -0.62.

Turning to B41, the “log2 fold change of degron read counts” value was -0.963.

Consider B42, for which the “log2 fold change of degron read counts” value is -1.17.

As for B43, the “log2 fold change of degron read counts” value amounted to 0.0319.

In the case of B44, the “log2 fold change of degron read counts” value is -0.954.

In the case of B45, the “log2 fold change of degron read counts” value is -2.91.

As for B46, the “log2 fold change of degron read counts” value is -1.01.

With B47, the “log2 fold change of degron read counts” value was -0.439.

On to B48, for which the “log2 fold change of degron read counts” value is 0.195.

As for B49, the “log2 fold change of degron read counts” value was -1.52.

On to B50, for which the “log2 fold change of degron read counts” value is -1.6.
